Experimental findings from the supplement of paper PMC5790926 are described below.

The subject of the assay is E-S-FLU (Zaire C15 EBOV-GP pseudotyped S-FLU) in MDCK-SIAT1 cells. In words: IC50 inhibition of E-S-FLU (EBOV-GP pseudotyped influenza) infection. How it is done: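 MDCK-SIAT1 cells were pretreated for 3 h with two-fold drug dilutions, then exposed overnight to a single-cycle eGFP reporter particle coated with the named glycoprotein; eGFP read on fixed cells. Mostly one titration per compound; only inhibitors are listed.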

Structures can show the parent of a compound that is named as a salt. Inhibition of entry of single-cycle reporter particles into MDCK-SIAT1 cells, 3 h drug pretreatment, overnight read-out. IC50, lower = stronger. No active / inactive call; only inhibitors are listed. Mostly one titration per compound.

On to `CCN(CC)CCOc1ccc(C(=C(Cl)c2ccccc2)c2ccccc2)cc1` [Clomiphene], for which the “IC50 inhibition of E-S-FLU” value turned out to be 0.35 µM.

In the case of `CN(C)CCCN1c2ccccc2CCc2ccc(Cl)cc21` [Clomipramine hydrochloride], the “IC50 inhibition of E-S-FLU” value was 13.9 µM.

Regarding `CN1CCN(C2=Nc3cc(Cl)ccc3Nc3ccccc32)CC1` [Clozapine], the “IC50 inhibition of E-S-FLU” value was 26.1 µM.

Take `CN(C)CCC=C1c2ccccc2C=Cc2ccccc21` [Cyclobenzaprine hydrochloride]: the “IC50 inhibition of E-S-FLU” value was determined as 20.3 µM.

On to `CN1CCC(=C2c3ccccc3C=Cc3ccccc32)CC1` [Cyproheptadine hydrochloride], for which the “IC50 inhibition of E-S-FLU” value was determined as 17.4 µM.

Regarding `COc1cc2c(cc1O)[C@@H](Cc1ccc(O)c(Oc3ccc(C[C@@H]4c5cc(OC)c(OC)cc5CCN4C)cc3)c1)N(C)CC2` [Daurisoline], the “IC50 inhibition of E-S-FLU” value turned out to be 5.1 µM.

Turning to `CNCCCN1c2ccccc2CCc2ccccc21` [Desipramine hydrochloride], the “IC50 inhibition of E-S-FLU” value is 19.4 µM.

As for `COc1ccc2c(c1)[C@]13CCCC[C@@H]1[C@H](C2)N(C)CC3` [Dextromethorphan hydrobromide monohydrate], the “IC50 inhibition of E-S-FLU” value worked out at 47.2 µM.

On to `CCN(CC)CCOC(=O)C1(C2CCCCC2)CCCCC1` [Dicyclomine hydrochloride], for which the “IC50 inhibition of E-S-FLU” value was 33.6 µM.

In the case of `CN1C[C@H](C(=O)N[C@]2(C)O[C@@]3(O)[C@@H]4CCCN4C(=O)[C@H](Cc4ccccc4)N3C2=O)C[C@@H]2c3cccc4[nH]cc(c34)C[C@H]21` [Dihydro ergotamine methanesulfonate], the “IC50 inhibition of E-S-FLU” value was 30.3 µM.

As for `COc1cc(C(=O)OCCCN2CCCN(CCCOC(=O)c3cc(OC)c(OC)c(OC)c3)CC2)cc(OC)c1OC` [Dilazep Dihydrochloride], the “IC50 inhibition of E-S-FLU” value came to 34.1 µM.

Consider `COc1cc2nc(N3CCN(C(=O)C4COc5ccccc5O4)CC3)nc(N)c2cc1OC` (centres undefined) [Doxazosin mesylate], for which the “IC50 inhibition of E-S-FLU” value was 42.9 µM.

On to `CN(C)CCC=C1c2ccccc2COc2ccccc21` [Doxepin hydrochloride], for which the “IC50 inhibition of E-S-FLU” value came to 38.5 µM.

As to `CC(C)C[C@H](NC(=O)[C@H]1O[C@@H]1C(=O)O)C(=O)NCCCCN=C(N)N` [E64], the “IC50 inhibition of E-S-FLU” value amounted to 77.2 µM.

`CC(C)(C)c1ccc(C(=O)CCCN2CCC(OC(c3ccccc3)c3ccccc3)CC2)cc1` [Ebastine]: the “IC50 inhibition of E-S-FLU” value came to 5.33 µM.

For `Cc1c2ccncc2c(C)c2c1[nH]c1ccccc12` [Ellipticine], the “IC50 inhibition of E-S-FLU” value is 3.3 µM.

As to `CCN(CC)C(C)CN1c2ccccc2Sc2ccccc21` (centres undefined) [Ethopropazine HCl], the “IC50 inhibition of E-S-FLU” value is 12.7 µM.

Regarding `COc1cccc2c1[C@@H]1CN(CCCCn3c(=O)[nH]c4c(sc5ncc(-c6ccccc6)nc54)c3=O)C[C@@H]1CO2` [Fiduxosin hydrochloride], the “IC50 inhibition of E-S-FLU” value came to 6.25 µM.

Regarding `OCCN1CCN(CCCN2c3ccccc3Sc3ccc(C(F)(F)F)cc32)CC1` [Fluphenazine dihydrochloride], the “IC50 inhibition of E-S-FLU” value is 13.6 µM.

Regarding `O=C1NCN(c2ccccc2)C12CCN(CCCC(c1ccc(F)cc1)c1ccc(F)cc1)CC2` [Fluspirilene], the “IC50 inhibition of E-S-FLU” value came out at 7.4 µM.

Regarding `COCCCC/C(=N\OCCN)c1ccc(C(F)(F)F)cc1` [Fluvoxamine maleate], the “IC50 inhibition of E-S-FLU” value was 44.9 µM.

Consider `CN(C)c1ccccc1CN1CCCN(Cc2ccccc2N(C)C)C1c1ccncc1` [GANT61], for which the “IC50 inhibition of E-S-FLU” value was 11 µM.

For `O=c1cc2c(=O)oc3cc(O)c(O)oc3c2c(O)c1O` [Galloflavin potassium], the “IC50 inhibition of E-S-FLU” value was found to be 36 µM.

Regarding `O=C(CCCN1CCC(O)(c2ccc(Cl)cc2)CC1)c1ccc(F)cc1` [Haloperidol], the “IC50 inhibition of E-S-FLU” value is 70.8 µM.

As for `Fc1ccc(CN(C2=NCCN2)c2c(Cl)cccc2Cl)cc1` [IMID-4F hydrochloride], the “IC50 inhibition of E-S-FLU” value came out at 13.4 µM.

Regarding `CC(C(O)c1ccc(O)cc1)N1CCC(Cc2ccccc2)CC1` (centres undefined) [Ifenprodil tartrate], the “IC50 inhibition of E-S-FLU” value turned out to be 66.8 µM.

As to `CNC1CC(c2ccc(Cl)c(Cl)c2)c2ccccc21` (centres undefined) [Indatraline HCl], the “IC50 inhibition of E-S-FLU” value was 9.1 µM.

With `CC(C)NC(C)Cc1ccc(I)cc1` (centres undefined) [Iofetamine HCl], the “IC50 inhibition of E-S-FLU” value is 96.6 µM.

Regarding `CC(=O)N1CCN(c2ccc(OCC3COC(Cn4ccnc4)(c4ccc(Cl)cc4Cl)O3)cc2)CC1` (centres undefined) [Ketoconazole], the “IC50 inhibition of E-S-FLU” value worked out at 77.3 µM.

Consider `c1ccc(CN2CCC3(CCCc4ccccc43)CC2)cc1` [L-687,384 HCl], for which the “IC50 inhibition of E-S-FLU” value is 17 µM.

`Ic1ccccc1CNC1C2CCN(CC2)C1C(c1ccccc1)c1ccccc1` [L-703,606 oxalate salt hydrate]: the “IC50 inhibition of E-S-FLU” value is 1.7 µM.

As for `OC1(c2ccc(Cl)cc2)CCN(Cc2c[nH]c3ccccc23)CC1` [L-741,626], the “IC50 inhibition of E-S-FLU” value worked out at 57.1 µM.

Regarding `CN(C)C(=O)C(CCN1CCC(O)(c2ccc(Cl)cc2)CC1)(c1ccccc1)c1ccccc1` [Loperamide HCl], the “IC50 inhibition of E-S-FLU” value came out at 16.8 µM.

In the case of `CN1CCN(C2=Nc3ccccc3Oc3ccc(Cl)cc32)CC1` [Loxapine succinate], the “IC50 inhibition of E-S-FLU” value came to 100 µM.

As for `CN(c1nc2ccccc2s1)C1CCN(C[C@H](O)COc2ccc(F)c(F)c2)CC1` [Lubeluzole dihydrochloride], the “IC50 inhibition of E-S-FLU” value was determined as 30.2 µM.

For the compound `CNCCCC12CCC(c3ccccc31)c1ccccc12` [Maprotiline HCl], the “IC50 inhibition of E-S-FLU” value is 5.4 µM.

Turning to `CN1C[C@H](CNC(=O)OCc2ccccc2)C[C@@H]2c3cccc4c3c(cn4C)C[C@H]21` [Metergoline], the “IC50 inhibition of E-S-FLU” value was 8.2 µM.

Regarding `CSc1ccc2c(c1)C(N1CCN(C)CC1)Cc1ccccc1S2` (centres undefined) [Methiothepin], the “IC50 inhibition of E-S-FLU” value was found to be 3.4 µM.

Turning to `CN1CCN2c3ccccc3Cc3ccccc3C2C1` (centres undefined) [Mianserin HCl], the “IC50 inhibition of E-S-FLU” value is 58.9 µM.

Regarding `O=c1c(O)c(-c2cc(O)c(O)c(O)c2)oc2cc(O)cc(O)c12` [Myricetin], the “IC50 inhibition of E-S-FLU” value was 25.3 µM.

`Clc1ccc2c(c1)N=C(N1CCNCC1)c1ccccc1N2` [N-Desmethylclozapine]: the “IC50 inhibition of E-S-FLU” value came to 17.5 µM.

Regarding `CNCCc1cnc(CCC(c2ccccc2)c2ccccc2)[nH]1` [N-methylhistaprodifen dioxalate salt], the “IC50 inhibition of E-S-FLU” value was 10.3 µM.

As for `CC(C)[C@H]1c2ccc(F)cc2CC[C@@]1(CCN(C)CCCc1nc2ccccc2[nH]1)OC(=O)C1CC1` [NNC 55-0396], the “IC50 inhibition of E-S-FLU” value was 1.8 µM.

Take `COc1ccccc1N1CCN(CC(O)COc2cccc3ccccc23)CC1` (centres undefined) [Naftopidil dihydrochloride]: the “IC50 inhibition of E-S-FLU” value was found to be 65.5 µM.

With `Oc1ccc2c3c1O[C@H]1c4oc5ccccc5c4C[C@@]4(O)[C@@H](C2)N(CC2CC2)CC[C@]314` [Naltriben methanesulfonate], the “IC50 inhibition of E-S-FLU” value was 99.1 µM.

On to `Oc1ccc2c3c1O[C@H]1c4[nH]c5ccccc5c4C[C@@]4(O)[C@@H](C2)N(CC2CC2)CC[C@]314` [Naltrindole HCl], for which the “IC50 inhibition of E-S-FLU” value is 32.7 µM.

Turning to `COc1ccc([C@H]2N[C@H](C(=O)O)Cc3c2[nH]c2ccccc32)cc1CN1CCN(c2ccccc2F)CC1` [Ned19], the “IC50 inhibition of E-S-FLU” value is 101 µM.

With `COC(=O)C1=C(C)NC(C)=C(C(=O)OCCN(C)Cc2ccccc2)C1c1cccc([N+](=O)[O-])c1` (centres undefined) [Nicardipine HCl], the “IC50 inhibition of E-S-FLU” value was found to be 28.3 µM.

Turning to `CNCCC(Oc1ccccc1OC)c1ccccc1` (centres undefined) [Nisoxetine HCl], the “IC50 inhibition of E-S-FLU” value is 57.4 µM.

`CNCCC=C1c2ccccc2CCc2ccccc21` [Nortriptyline HCl]: the “IC50 inhibition of E-S-FLU” value was determined as 12.6 µM.

As for `OCCN1CCN(CCCN2c3ccccc3C=Cc3ccccc32)CC1` [Opipramol dihydrochloride], the “IC50 inhibition of E-S-FLU” value came to 18.3 µM.

Take `Cc1ccccc1C(OCCN(C)C)c1ccccc1` (centres undefined) [Orphenadrine HCl]: the “IC50 inhibition of E-S-FLU” value was determined as 16.2 µM.

Take `CCN(CC)CC#CCOC(=O)C(O)(c1ccccc1)C1CCCCC1` (centres undefined) [Oxybutynin Chloride]: the “IC50 inhibition of E-S-FLU” value was determined as 48.5 µM.

Turning to `C=CCc1cccc(/C=N/NC(=O)CN2CCN(Cc3ccccc3)CC2)c1O` [PAC-1], the “IC50 inhibition of E-S-FLU” value came to 53.8 µM.

As for `Fc1ccc([C@@H]2CCNC[C@H]2COc2ccc3c(c2)OCO3)cc1` [Paroxetine HCl hemihydrate], the “IC50 inhibition of E-S-FLU” value was 3 µM.

On to `OCCN1CCN(CCCN2c3ccccc3Sc3ccc(Cl)cc32)CC1` [Perphenazine], for which the “IC50 inhibition of E-S-FLU” value amounted to 8.18 µM.

Consider `N=C(NC(=O)c1nc(Cl)c(N)nc1N)Nc1ccccc1` [Phenamil methanesulfonate], for which the “IC50 inhibition of E-S-FLU” value was 44 µM.

Consider `O=c1[nH]c2ccccc2n1C1CCN(CCCC(c2ccc(F)cc2)c2ccc(F)cc2)CC1` [Pimozide], for which the “IC50 inhibition of E-S-FLU” value turned out to be 7.5 µM.

In the case of `COc1cc(/C=C/C(=O)N2CCC=CC2=O)cc(OC)c1OC` [Piperlongumine], the “IC50 inhibition of E-S-FLU” value amounted to 9.5 µM.

For `COc1cc2nc(N3CCN(C(=O)c4ccco4)CC3)nc(N)c2cc1OC` [Prazosin HCl], the “IC50 inhibition of E-S-FLU” value stood at 19.8 µM.

Take `CN1CCN(CCCN2c3ccccc3Sc3ccc(Cl)cc32)CC1` [Prochlorperazine dimaleate]: the “IC50 inhibition of E-S-FLU” value is 3.7 µM.

Turning to `CN(C)CCCN1c2ccccc2Sc2ccccc21` [Promazine HCl], the “IC50 inhibition of E-S-FLU” value came to 15 µM.

For the compound `CC(CN1c2ccccc2Sc2ccccc21)N(C)C` (centres undefined) [Promethazine HCl], the “IC50 inhibition of E-S-FLU” value stood at 22.8 µM.

Consider `CCCNCC(O)COc1ccccc1C(=O)CCc1ccccc1` (centres undefined) [Propafenone HCl], for which the “IC50 inhibition of E-S-FLU” value came out at 18.4 µM.

As to `CCC(=O)c1ccc2c(c1)N(CCCN(C)C)c1ccccc1S2` [Propionyl promazine HCl], the “IC50 inhibition of E-S-FLU” value is 15.3 µM.

For the compound `C=Cc1c(C)c2cc3[nH]c(cc4nc(cc5nc(cc1[nH]2)C(C)=C5CCC(=O)O)C(CCC(=O)O)=C4C)c(C)c3C=C` [Protoporphyrin IX], the “IC50 inhibition of E-S-FLU” value amounted to 42 µM.

`CNCCCC1c2ccccc2C=Cc2ccccc21` [Protriptyline HCl]: the “IC50 inhibition of E-S-FLU” value amounted to 13.8 µM.

For the compound `CCN(CC)CCCC(C)Nc1c2ccc(Cl)cc2nc2ccc(OC)cc12` (centres undefined) [Quinacrine dihydrochloride], the “IC50 inhibition of E-S-FLU” value stood at 2.91 µM.

Regarding `C=C[C@H]1CN2CC[C@H]1C[C@@H]2[C@@H](O)c1ccnc2ccc(OC)cc12` [Quinidine sulfate], the “IC50 inhibition of E-S-FLU” value is 81.3 µM.
